Results as given in patent publication US10220090B2, “BCMA Antigen binding proteins” (Amgen Inc., priority 2012, dated 2019).

Test: Differential Scanning Calorimetry (DSC) thermostability
Type: physicochemical
Details: second campaign covariance muteins
Source text: Differential Scanning calorimetry (DSC) was used to compare the thermostability of parent and engineered antibodies. DSC is a thermodynamical tool for direct assessment of the heat energy uptake, which occurs in a sample within a regulated increase or decrease in temperature. DSC is commonly employed to assess the thermal and conformational stability of a protein. The melting temperature of a protein, or of individual domains, can be obtained from the DSC profile, and if the reaction is reversible the thermodynamic parameters of the unfolding can be determined. A protein is considered more thermostable when the Tm (transition temperature) is higher. When thermostability data are compared to other bioanalytical methods, like size exclusion chromatography (SEC), it has been observed that a correlation between greater thermostability (higher Tm) and decreased aggregation. […]
DSC was carried out using a MicroCal™ VP-Capillary DSC system (GE Healthcare, Piscataway, N.J.) equipped with an auto-sampler. The temperature differences between the reference and sample cells are continuously measured, and calibrated to power units. […] The solution reference and protein samples were measured in a 135 μL cell from 20 to 110° C. at a heating rate of 60° C./hour. […] Heat capacity during protein melting was calculated by normalizing over protein concentration.

| Molecule | Tm (DSC) |
| --- | --- |
| P71567.3: light chain SEQ ID NO:331, heavy chain SEQ ID NO:332 (antibody) heavy: EVQLLESGGALVQPGGSLRLSCAASGFTFSSYAMNWVRQAPGKGLEWVSAISVGGGTYYADSVKGRFTISRDNSKNTLYLHVNSLRAEDTAVYYCAKDQVTMVRGVWYYYGLDVWGQGTTVTVSS[omitted - human IgG1 constant region] light: VIVLIQSPLSLPVTPGEPASISCRSSQSLLHSNGNNYLDWYLQKPGQSPHLLISLGSQRTSGVPDRFSGSGSGTDFTLKISRVEAEDVGFYYCMQALQPPRRFGQGTKLEIKRTVAAPSVFIFPPSDEQLKSGTASVVCLLNNFYPREAKVQWKVDNALQSGNSQESVTEQDSKDSTYSLSSTLTLSKADYEKHKVYACEVTHQGLSSPVTKSFNRGEC | 72.8 °C |
| P71568.3: light chain SEQ ID NO:333, heavy chain SEQ ID NO:334 (antibody) heavy: EVQLLESGGALVQPGGSLRLSCAASGFTFSNYAMNWVRQAPGKGLEWVSAISVGGDTYYADSVKGRFTISRDNSKNTLYLHVNSLSAEDSAVYYCAKDQVTLVRGVWYYYGLDVWGQGTTVTVSS[omitted - human IgG1 constant region] light: VIVLIQSPLSLPVTPGEPASISCRSSQSLLHSNGNNYLDWYLQKPGQSPHLLISLGSQRTSGVPDRFSGSGSGTDFTLKISRVEAEDVGFYYCMQALQPPRRFGQGTKLEIKRTVAAPSVFIFPPSDEQLKSGTASVVCLLNNFYPREAKVQWKVDNALQSGNSQESVTEQDSKDSTYSLSSTLTLSKADYEKHKVYACEVTHQGLSSPVTKSFNRGEC | 76.6 °C |
